# From PubChem BioAssay AID1347073 (National Center for Advancing Translational Sciences (NCATS), 2019)
# About 200 (0.44%) of roughly 45,000 compounds were called active. Not shown: some 7% with an inconclusive outcome. The call rests on the fitted dose curve; in most records, active means well fitted activation curve with a large enough effect; inconclusive means small, poorly fitted or top-dose-only effect; inactive means no such curve, though single readings can be large or run the other way. The list shows a part of the results.
# Test: qHTS of TDP-43 Inhibitors: NCGC Sytravon Library Screen; further: 0% is about no effect; nearly all actives have a fitted effect of over 55% in size
# Conditions: yeast TDP-43 toxicity rescue, BacTiter-Glo growth, 24 h; series mostly up to 46.1 µM; growth rescue (activation): at the top concentration
# In short: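 TDP-43-expressing yeast, pregrown in raffinose, seeded at OD600 0.02 in galactose medium with compound for 24 hr at 30 deg C. Growth read by BacTiter-Glo luminescence, so rescue of toxicity appears as activation.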
Compound,growth rescue (activation),Potency
O=C(/C=C/c1ccco1)NCCCN1CCN(CCCNC(=O)/C=C/c2ccco2)CC1,inactive: -2.98%,
C=CCN(c1ccc(C(=O)Nc2cccc(C)c2)cc1)S(C)(=O)=O,inactive: -4.13%,
CC(C)(C)SC(C(=O)N1CCOCC1)c1ccc(Br)cc1 (stereo unspecified),inactive: 18.4%,
CCCNS(=O)(=O)c1ccc(OCC(=O)N2CCN(c3ccccc3)CC2)cc1,inactive: -3.83%,
CCc1nnc(NC(=O)CSc2nnc(C(C)NC(=O)c3ccccc3)n2C)s1 (stereo unspecified),inactive: -0.281%,
CCOCCOC(=O)c1[nH]c2c(c1C)C(=O)CC(c1cccs1)C2 (stereo unspecified),inactive: 18.7%,
Cc1ccc(C(=O)NCC(=O)N2CCC(Cc3ccccc3)CC2)cc1,inactive: -7.35%,
O=C(Nc1ccccc1Br)c1cc(=O)c2ccccc2o1,inactive: 6.84%,
c1ccc2c(C3=NNC(=NC4CC4)SC3)c[nH]c2c1,inactive: 18.1%,
CCC(=O)Nc1ccc(-c2cc3ccccc3oc2=O)cc1,inactive: -6.25%,
CCOC(=O)C(/C=C(\C#N)C(=O)OCC)=C(/N)N1CCN(c2c(C)cccc2C)CC1,inactive: -4.01%,
O=C(COC(=O)C1CCN(S(=O)(=O)c2ccc3c(c2)OCCO3)CC1)Nc1cc(C(F)(F)F)ccc1Cl,inactive: 7.35%,
CCc1ccc2n(-c3ccc(OC)cc3)c([S-])c(C(=O)Nc3cc(C)cc(C)c3)[n+]2c1,inactive: 3.95%,
O=C(COC(=O)CNC(=O)c1cccc([N+](=O)[O-])c1)Nc1cccc(S(=O)(=O)N2CCCCC2)c1,inactive: 12.3%,
O=C(Nc1ccccc1C(=O)N1CCOCC1)C1CC(=O)N(c2ccc(F)cc2)C1 (stereo unspecified),inactive: 1.26%,
CNc1c(NS(=O)(=O)c2cc(OC)ccc2OC)c(=O)oc2ccccc12,inactive: -22.6%,
N#CCc1ccc(NC(=O)c2ccc(S(=O)(=O)N3CCCC3)cc2)cc1,inactive: -7.07%,
COc1ccc(C(C)(O)c2nc(-c3cccc(C(F)(F)F)c3)cs2)cc1 (stereo unspecified),inactive: -43.8%,
CCC1(C)Cc2nc3[nH]c(=S)n(-c4ccc(C)cc4)c(=O)c3cc2CO1 (stereo unspecified),inactive: 6.69%,
O=C(O)c1ccc(N2C(=O)/C(=C/c3ccc(-c4ccc([N+](=O)[O-])cc4)o3)C=C2c2ccccc2)cc1,inactive: -1.01%,
Cc1ccc(OCC(=O)N2CC(C)CC(C)C2)c([N+](=O)[O-])n1 (stereo unspecified),inactive: 15.6%,
CCOC(=O)c1c(/N=C/C2C(=O)CCCC2=O)sc2c1CCCC2,inactive: 7.19%,

Compound,growth rescue (activation),Potency
Oc1c(Br)cc(/C=N/Nc2nncc3ccccc23)cc1Br,inactive: 9.83%,
COc1ccccc1NC(=O)Nn1cnnc1,inactive: -23.1%,
CCS(=O)(=O)N1CCC(C(=O)NCc2ccc(OC)cc2OC)CC1,inactive: 4.26%,
COc1cc(-c2cc3nc(NCc4ccco4)ccn3n2)cc(OC)c1OC,inactive: 18.6%,
COc1ccccc1OCc1nnc(SCC(=O)Nc2nnc(C3CC3)s2)n1C,inactive: -13%,
CCCCNC(=O)CSc1nc2ccccc2n1S(=O)(=O)c1ccc(Br)cc1,inactive: 7%,
O=C(/C=C/c1ccc(O)cc1)c1ccccc1,inactive: -2%,
Cc1nn(CCCC(=O)O)c(C)c1[N+](=O)[O-],inactive: -5.58%,
O=C(O)c1ccc(C2Nc3ccccc3-c3nnc(SCc4ccc(Cl)cc4)nc3O2)cc1 (stereo unspecified),inactive: 10.1%,
O=C(O)/C=C/C(=O)NCCCc1ccccc1,inactive: 12.1%,
O=C(NC1CCCCC1)c1cc(-c2ccccc2O)on1,inactive: 20.9%,
O=C(NNC(=O)C1CCCC1)c1ccccc1F,inactive: 4.34%,
Cc1ccc(CC(=O)Nc2nccs2)cc1C,inactive: 14%,
COc1ccc(/C=C(/NC(=O)c2cccc([N+](=O)[O-])c2)C(=O)O)cc1OC,inactive: -1.06%,
COc1cc2c(cc1OC)CN(c1nc(CN3CCOCC3)nc3sc4c(c13)CCC(C)C4)CC2 (stereo unspecified),inactive: 4.46%,
CCCCn1c(=O)nc2n(-c3ccc(F)cc3)c3ccccc3cc-2c1=O,inactive: 5.97%,
CCN(c1cc(C)cc(C)c1)S(=O)(=O)c1nnc(NC(=O)C(C)C)s1,inactive: 1.99%,
N/C(COc1ncn(-c2ccccc2)n1)=N\S(=O)(=O)c1ccc(Cl)cc1Cl,inactive: 0.983%,
COc1ccc(S(=O)(=O)N(C)CC(=O)NCc2ccc3c(c2)OCO3)cc1,inactive: 12.7%,
CCOc1ccc(Cl)cc1/C=C1/C(=O)ON=C1C,inactive: -15.5%,
Cc1occc1-c1nnc(SCC(N)=O)o1,inactive: -4.04%,
CN(Cc1nc(CCc2ccccc2)no1)Cc1cccs1,inactive: 23.1%,

Compound,growth rescue (activation),Potency
CCOc1ccc(/C=C2\CCC(C3CCCC3)C2=O)cc1 (stereo unspecified),inactive: 13.4%,
COc1ccc(NC2CCCN(C(=O)CSc3ccncc3)C2)cc1 (stereo unspecified),inactive: 11.7%,
O=C(CC1C(=O)NCCN1C/C=C/c1ccccc1)NCCCC1CCCC1 (stereo unspecified),inactive: 4.86%,
CCc1ccc(NC(=O)CS(=O)CC(=O)Nc2ccc(N3CCOCC3)cc2)cc1 (stereo unspecified),inactive: 4.09%,
Cc1ccc(C)c(NC(=O)C2(C)CCCN2C(=O)C(C)C)c1 (stereo unspecified),inactive: 3.87%,
CC1=C(C#N)C(c2ccc(O)cc2)C2=C(CCCC2=O)N1 (stereo unspecified),inactive: -9.03%,
Cc1cccc(N2CC(C(=O)Nc3ccc(S(=O)(=O)N4CCCCC4)cc3)CC2=O)c1C (stereo unspecified),inactive: 23%,
CN(C)c1ccc(C(CC(=O)c2ccccc2)C2CCCCC2=O)cc1 (stereo unspecified),inactive: -0.268%,
O=C(CC(NCCN1CCOCC1)C(=O)O)Nc1cccc(Cl)c1 (stereo unspecified),inactive: 5.73%,
O=c1c2ccccc2c(/C=N/c2nnc(Cc3ccccc3)s2)c(O)n1-c1ccc(Cl)cn1,inactive: 1.89%,
CCN(c1ccccc1)S(=O)(=O)c1ccc(C(=O)Nc2c(C)n(C)n(-c3ccccc3)c2=O)cc1,inactive: -19.8%,
C/C(=N\NC(=O)c1nnn(-c2nonc2N)c1CSc1ccccc1)c1ccc2c(c1)OCO2,inactive: 4.55%,
O=C1/C(=C/c2cccnc2)CC/C1=C\c1cccnc1,inactive: -8.6%,
C[C@H](NC(=O)c1ccco1)C(=O)Nc1ccc2c(c1)OCO2,inactive: 3.75%,
CCc1nc2ccc(C(=O)Nc3cc(-c4ccccc4)ccc3OC)cn2c1N(C)Cc1ccc(OC)cc1,inactive: -43.1%,
CCOc1ccc(NC(=O)CSc2ncn[nH]2)c([N+](=O)[O-])c1,inactive: -5.03%,
CC(CN1CCCCC1)C(=O)NN (stereo unspecified),inactive: 17.8%,
COc1ccc(CNC(=O)C(c2ccncc2)N(C(=O)Cc2cccs2)c2cccnc2)cc1 (stereo unspecified),inactive: 16.5%,
O=C(O)C1CCCCC1C(=O)Nc1ccc(S(=O)(=O)N2CCCCCC2)cc1 (stereo unspecified),inactive: -12%,
Cc1cccc(NC(=O)c2cccc3c2-c2ccccc2C3=O)n1,inactive: 17%,
COc1ccc(-n2c(=S)[nH]c3cc(C(=O)NCCCN4CCOCC4)ccc3c2=O)cc1,inactive: 4.6%,
Cc1ccc2c(c1)N(CCC(=O)NC1CCCCC1C)C(=O)CO2 (stereo unspecified),inactive: 5.5%,

Compound,growth rescue (activation),Potency
CCOc1cnc(-c2c(-c3c(F)cccc3Cl)noc2C)o1,inactive: -23.4%,
COc1ccccc1-c1csc(C(NC(C)=O)c2ccccc2)n1 (stereo unspecified),inactive: 0.133%,
O=C(CSc1n[nH]c(-c2ccccc2)n1)Nc1ccccc1O,inactive: 15.3%,
NC(=O)c1cc(-c2csc(NCCc3ccccc3)n2)ccc1O,inactive: -49.9%,
O=C(NC(c1ccc(-c2ccccc2)cc1)c1cnccn1)C1CCN(Cc2ccc(Oc3ccccc3)cc2)CC1 (stereo unspecified),inactive: -39.1%,
O=C(O)c1ccc(NS(=O)(=O)c2ccc3c(c2)C(=O)c2cc(S(=O)(=O)Nc4ccc(C(=O)O)cc4)ccc2-3)cc1,inactive: -1.63%,
CCC1Oc2ccc(C)cc2N(CC(=O)N2CCOCC2)C1=O (stereo unspecified),inactive: 18.1%,
Cc1ccc(NC(=O)c2ccc([N+](=O)[O-])o2)cc1S(=O)(=O)N1CCOCC1,inactive: 17.5%,
CN(Cc1ccon1)C(=O)C1CCN(C2CCN(CCCc3ccccc3)CC2)CC1,inactive: 13.7%,
CCOc1ccc(NC(=S)N2CCC(NC(=O)c3ccccc3)CC2)cc1,inactive: 0.955%,
CCOC(=O)c1c(-c2ccccc2)oc2ccc(OCC)cc12,inactive: 25.3%,
Cc1ccc(NC(=O)CCNS(=O)(=O)c2cccc3nsnc23)cc1F,inactive: 7.3%,
CN1CCC/C1=C1/C(=O)N(c2ccccc2)N=C1NC(=O)Nc1cccc(Cl)c1,inactive: 6.48%,
COc1ccc(NC2=C(C(C)=O)C(c3ccccc3)C(C(C)=O)C(C)(O)C2)cc1 (stereo unspecified),inactive: 10.8%,
Cc1cccc(C)c1NC(=O)Nc1ccccc1-n1ccnc1,inactive: 9.31%,
O=C(c1cnn(C(=O)c2ccccc2)c1)c1ccccc1O,inactive: 28.9%,
Cc1c(CN2CCC(CO)(CC3CCCCO3)CC2)cnn1C (stereo unspecified),inactive: 2.28%,
COc1ccc(C(=O)Nc2nc3c(s2)Cc2cc(OC)ccc2-3)cc1,,inactive
COc1c(Cl)ccc(Cl)c1C(=O)NC(=S)N1CCOCC1,inactive: 11.5%,
COc1ccc(CNC(=O)CN(Cc2ccc(OC)cc2)C(=O)CCC(=O)Nc2nccs2)cc1,inactive: 0.639%,
CN1COc2ccc3ccccc3c2C1,inactive: 5.38%,
O=C(Nc1ccc(N2CCOCC2)cc1)c1cccc2c(-c3ccc(F)c(F)c3)coc12,inactive: -2.56%,

Compound,growth rescue (activation),Potency
O=C(COc1ccccc1Cl)Nc1ccc2c(c1)OCO2,inactive: 13%,
Cc1ccc(NC(=O)c2c(Cl)nc3ccccn23)cc1,inactive: 24.1%,
CCNC(=O)C1(C)CCCN(CC(=O)c2ccccc2OC)C1 (stereo unspecified),inactive: -18.5%,
CC(C)N(Cc1ccccc1)C(=O)COC(=O)c1c(F)cccc1F,inactive: 9.75%,
CN(C)S(=O)(=O)c1ccc(C(=O)NCc2ccccn2)cc1,inactive: 13.5%,
CCOc1cc(S(=O)(=O)NCc2ccncc2)c(C)cc1C,inactive: -8.7%,
COc1ccccc1CNC(=O)CN1C(=O)NC(Cc2ccccc2)(c2ccccc2)C1=O (stereo unspecified),inactive: -9.37%,
CC(CCc1ccccc1)N1CCN(Cc2ccccc2)CC1 (stereo unspecified),inactive: 7.37%,
Cc1ccc(S(=O)(=O)Nc2ccc(N3CCCCC3)cc2)cc1,inactive: -1.27%,
COc1ccc(CCN(/C=C2\Sc3ccccc3C2=O)C(C)=O)cc1OC,inactive: 18.4%,
O=C(COC(=O)c1ccc(S(=O)(=O)N2CCCC2)cc1)Nc1ccc(F)cc1F,inactive: -4.82%,
Nc1cc(Cl)ccc1C(=O)OCC(=O)N1CCCC1,inactive: 9.41%,
Cc1sc2nc(SCC(=O)NCc3ccco3)n(C)c(=O)c2c1C,inactive: 23.1%,
O=C(COc1ccc(F)cc1)Nc1ccc(Cl)c(-c2nc3ccccc3[nH]2)c1,inactive: -7.33%,
CCCCc1ccc(NC(=S)NCCc2ccc(S(N)(=O)=O)cc2)cc1,inactive: 13.7%,
O=C(N/N=C/c1cn(-c2ccccc2)nc1-c1cc2ccccc2o1)c1c[nH]c2ccccc12,inactive: 3.1%,
Cc1ccc(-c2cc(C(F)F)nc(N3CCOCC3)n2)cc1,inactive: 1.51%,
CCOC(=O)NC(=O)/C(C#N)=N\Nc1cccc(Cl)c1,inactive: 20.5%,
